Experimental data: the supplement of paper PMC10369915
The other results are listed elsewhere or left out. Rule as the data show it: active = 3.2 or more and inactive = the rest. Only a few entries rise above the background.

Key:
Assay in all cases: enrichment score (SH2-bound / input frequency) (ratio); bacterial display of known human phosphotyrosine sites (pTyr-Var adds point mutants) read by sequencing; higher = stronger binding; tyrosines were phosphorylated by kinases first
Conditions in all cases: peptide library: pTyr-Var
[1] = target: SHP2 C-SH2 domain E139D
[2] = target: SHP2 C-SH2 domain wild-type
[3] = target: SHP2 N-SH2 domain L43F
[4] = target: SHP2 N-SH2 domain T42A
[5] = target: SHP2 N-SH2 domain T52S
[6] = target: SHP2 N-SH2 domain wild-type

Measured: enrichment score
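Also: displayed peptides selected on beads carrying the immobilized SH2 domain, with library peptides lacking any tyrosine serving as negative controls.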

KLLPEYPGVLS [DHFR2_Y163]
inactive: [1] 1.69 | [2] 1.2 | [3] 1.24 | [4] 1.03 | [5] 1.22 | [6] 1.29

RKLASYQSCLL [DHX37_Y1080_R1081Q]
inactive: [1] 0.833 | [2] 1.04 | [3] 0.666 | [4] 0.786 | [5] 0.67 | [6] 0.948

QLDQRYLLVPE [DDX49_Y223]
inactive: [1] 0.777 | [2] 0.602 | [3] 0.665 | [4] 0.649 | [5] 0.693 | [6] 0.766

KLLPEYPGILS [DHFR2_Y163_V166I]
inactive: [1] 1.1 | [2] 1.12 | [3] 1.28 | [4] 1.37 | [5] 1.48 | [6] 1.43

IDLEKYKLLPE [DHFR_Y157]
inactive: [1] 1.27 | [2] 1.4 | [3] 1.2 | [4] 0.915 | [5] 1.14 | [6] 1.14

GGGFGYQKTRK [DDX18_Y643_K647R]
inactive: [1] 0.771 | [2] 0.634 | [3] 0.54 | [4] 0.425 | [5] 0.615 | [6] 0.497

VIEYSYTSADG [DHCR7_Y382_C380Y]
inactive: [1] 1.06 | [2] 2.05 | [3] 0.979 | [4] 2.07 | [5] 0.776 | [6] 0.872

CTLLPYYSAPV [DGKE_Y269_R273P]
inactive: [1] 1.2 | [2] 1.64 | [3] 1.35 | [4] 1.03 | [5] 1.09 | [6] 1.71

MDQAEYQAKIQ [DHX58_Y518_R523Q]
inactive: [1] 0.452 | [2] 0.517 | [3] 0.53 | [4] 0.646 | [5] 0.477 | [6] 0.545

IVAEFYDNLPH [DEGS1_Y284_A280V_YF]
inactive: [1] 0.905 | [2] 0.653 | [3] 0.823 | [4] 0.806 | [5] 0.911 | [6] 0.803

VIEFSYTSADG [DHCR7_Y382_C380Y_YF]
inactive: [1] 1.13 | [2] 0.888 | [3] 1.04 | [4] 0.943 | [5] 0.992 | [6] 1.21

CTLLPYFSAPV [DGKE_Y269_R273P_YF]
inactive: [1] 1.04 | [2] 1.55 | [3] 1.19 | [4] 1.1 | [5] 1.04 | [6] 1.34

GGGFGYQKTKK [DDX18_Y643]
inactive: [1] 0.893 | [2] 1.07 | [3] 0.981 | [4] 0.675 | [5] 0.709 | [6] 1.13

IVAEYYDNLPH [DEGS1_Y284_A280V]
inactive: [1] 1.16 | [2] 1.15 | [3] 1.22 | [4] 1.17 | [5] 0.915 | [6] 0.987

VIECSYTSADG [DHCR7_Y382]
inactive: [1] 0.885 | [2] 0.972 | [3] 0.748 | [4] 0.657 | [5] 0.735 | [6] 1.04

CTLLPYYSARV [DGKE_Y269]
inactive: [1] 0.834 | [2] 1.07 | [3] 0.921 | [4] 0.807 | [5] 0.709 | [6] 1.02

LPIQTYSALNF [DES_Y423]
inactive: [1] 1.18 | [2] 1.16 | [3] 3.13 | [6] 1.19
active: [4] 4.41 | [5] 3.59

ITNHIYTWVDP [DFNB31_Y234_V229I]
inactive: [1] 1.88 | [2] 1.87 | [3] 1.57 | [4] 1.71 | [5] 1.94 | [6] 1.95

HQIQSYTCEID [DES_Y331]
inactive: [1] 0.771 | [2] 0.663 | [3] 0.719 | [4] 0.713 | [5] 0.645 | [6] 0.599

RHLREYQDLLI [DES_Y388_N393I]
inactive: [1] 1.79 | [2] 1.96 | [3] 2 | [4] 1.75 | [5] 1.78 | [6] 2.12

CTLLPYFSARV [DGKE_Y269_YF]
inactive: [1] 0.794 | [2] 0.988 | [3] 0.877 | [4] 0.845 | [5] 0.89 | [6] 1.11

TQNGVYSAANY [DDX5_Y535]
inactive: [1] 0.701 | [2] 0.68 | [3] 0.604 | [4] 0.53 | [5] 0.712 | [6] 0.667

NSIGNYYKPWF [DHCR24_Y299]
active: [3] 4.59 | [4] 5.3 | [5] 5.99
inactive: [1] 1.2 | [2] 1.88 | [6] 1.83

DAAEDYAEGVC [DHODH_Y194_R199C]
inactive: [1] 0.554 | [2] 0.669 | [3] 0.472 | [4] 0.528 | [5] 0.492 | [6] 0.678

IVLEKYKLLPE [DHFR_Y157_D153V]
inactive: [1] 1.38 | [2] 1.45 | [3] 1.47 | [4] 1.18 | [5] 1.37 | [6] 1.31

VIERSYTSADG [DHCR7_Y382_C380R]
inactive: [1] 0.494 | [2] 0.472 | [3] 0.531 | [4] 0.386 | [5] 0.386 | [6] 0.459

LSIQTYSALNF [DES_Y423_P419S]
inactive: [1] 2.26 | [2] 2.9 | [6] 2.18
active: [3] 5.91 | [4] 6.55 | [5] 5.75

KRTFEYEADKN [DENND2B_Y396]
inactive: [1] 0.56 | [2] 0.598 | [3] 0.533 | [4] 0.573 | [5] 0.46 | [6] 0.724

RHLREYPDLLN [DES_Y388_Q389P]
inactive: [1] 1.42 | [2] 1.02 | [3] 1.21 | [4] 1.07 | [5] 1.05 | [6] 1.44

RLPNGYGLAFR [DLK1_Y262_S260N_YF]
inactive: [1] 0.938 | [2] 0.767 | [3] 0.82 | [4] 0.877 | [5] 0.863 | [6] 0.839

TSIGNYFKPWF [DHCR24_Y299_N294T_YF]
active: [2] 3.67 | [3] 12.6 | [4] 13.5 | [5] 14 | [6] 5.26
inactive: [1] 2.56

KHASTYREAAT [DEAF1_Y483]
inactive: [1] 0.806 | [2] 0.696 | [3] 0.707 | [4] 0.615 | [5] 0.633 | [6] 0.595

EQSGSYIWVPA [DLG1_Y895]
inactive: [1] 0.811 | [2] 0.861 | [3] 0.72 | [4] 0.783 | [5] 0.723 | [6] 0.666

HICTAYKLVLA [DHCR24_Y190_E191K]
inactive: [1] 1.55 | [2] 1.8 | [3] 2.24 | [4] 1.77 | [5] 1.92 | [6] 2.36

KALKQYRASPS [DDX27_Y763_G766S]
inactive: [1] 0.371 | [2] 0.383 | [3] 0.371 | [4] 0.359 | [5] 0.33 | [6] 0.51

GMIQAYSSSQR [DES_Y5_S2I]
inactive: [1] 0.884 | [2] 0.646 | [3] 0.757 | [4] 0.571 | [5] 0.576 | [6] 0.946

QGRQTYLLQPA [DDR2_Y813_P815L]
inactive: [1] 0.805 | [2] 0.899 | [3] 0.958 | [4] 0.652 | [5] 0.793 | [6] 0.778
